Laboratory results from PubChem BioAssay AID652104 (National Center for Advancing Translational Sciences (NCATS), 2013).
Several values for one entry are separate records, joined by “and”; a condition that tells them apart may be missing. Equal entries are not always repeated. Among all 410,000 compounds or so, about 7,200 (1.8%) were called active. Inconclusive means that the source gave no clear call. Such entries were picked first, then a sample of the others. The call rests on the fitted dose curve; in most records, active means well fitted activation curve with a large enough effect; inconclusive means small, poorly fitted or top-dose-only effect, or another doubt; inactive means no such curve, though single readings can be large or run the other way. Where the call is inconclusive, the potency comes from a doubtful curve fit.

Assay: qHTS of TDP-43 Inhibitors; further: nearly all actives have a fitted effect of over 50% in size; on growth rescue (activation): % of control where 0% means no effect
Details: TDP-43 expressing yeast growth rescue, BacTiter-Glo, 24 h; growth rescue (activation): at 46.1 µM (top of the series) unless noted
In short: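 Yeast expressing TDP-43 (pregrown in raffinose, seeded at OD600=0.02 in galactose medium) exposed to compounds 24 hr at 30 deg C. Growth read by BacTiter-Glo luminescence; rescue of toxicity appears as increased signal.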
Potency means the concentration at half of the fitted maximal effect; tags describe the fitted curve by direction and shape.

Potency, active:
O=C(c1ccccc1)N1CCN=C1SCc1ccc([N+](=O)[O-])cc1 10 µM, COCCCNC(=S)N1CCN(c2nc(-c3ccccc3)cs2)CC1 35.5 µM, Nc1ccc2c(c1)C(=NO)c1cc([N+](=O)[O-])ccc1-2 11.2 µM, CCOc1ccc(NC(=S)NC(=O)c2c(Br)cnn2C)c([N+](=O)[O-])c1 15.8 µM, NC(=S)N/N=C/c1ccc(-c2ccccc2)o1 11.2 µM, CC1=CC2=NC(=O)/C(=C\c3cccn3CCOc3cc(C)ccc3C)C(=N)N2O1 15.8 µM, CC(=O)c1c(C)oc2c1C(=O)c1ccccc1C2=O 5.01 µM, O=C(CN1CCSc2ccccc21)NCc1ccccc1F 12.6 µM, Cc1ccc(CN=c2c([N+](=O)[O-])nn(-c3ccc(Cl)cc3)n2O)cc1 11.2 µM, CCOc1ccccc1C(=O)N(Cc1cccs1)c1ccc(Cl)cc1 22.4 µM

Potency, inconclusive:
Cc1cccc(-c2nc(CCNC(=O)c3ccco3)cs2)c1 12.6 µM [activator, single point] and 11.2 µM [activator, partial curve], Cc1ccc(Sc2ccc([N+](=O)[O-])cc2[N+](=O)[O-])nc1 17.8 µM [activator, partial curve], COc1ccc(CC(=O)N2CCc3ccccc32)cc1 12.6 µM [activator, partial curve], COc1ccc(CCNC(=S)Nc2cccc(C)c2C)cc1 11.2 µM [activator, partial curve], Cc1cccc(C)c1OCCSc1nc2ccccc2n1CC(=O)O 0.708 µM [activator, full curve], CCOC(=O)C1CCCc2c1[nH]c1c(C(=O)O)cccc21 (centres undefined) 17.8 µM [activator, single point], COc1ccc(-c2cnc(N)n2CC2CCCO2)cc1 (centres undefined) 3.98 µM [activator, full curve, poor fit], O=c1cc(Cl)c(-c2ccccc2)nn1Cc1ccc(Cl)cc1 14.1 µM [activator, single point], C=CCn1cnc2scc(-c3ccccc3)c2c1=O 14.1 µM [activator, single point], Cc1ccnc(NC(=O)c2cc3ccccc3oc2=O)c1 5.01 µM [activator, partial curve], CCC(C)Nc1nc(N)c([N+](=O)[O-])c(Nc2ccccc2OC)n1 (centres undefined) 15.8 µM [activator, single point], O=C(Nc1cccc([N+](=O)[O-])c1)C1COc2ccccc2O1 (centres undefined) 11.2 µM [activator, partial curve], O=C(O)[C@H](Cc1ccccc1)NC(=O)C(c1ccccc1)(c1ccccc1)c1ccccc1 5.62 µM [activator, partial curve], CC(Oc1ccc(Br)cc1)C(=O)N(C)CC(=O)Nc1ccc(N2CCOCC2)cc1 (centres undefined) 17.8 µM [activator, partial curve], COc1cccc(CNc2nc3cc(-c4ccsc4)sc3c(=O)n2C)c1OC 11.2 µM [activator, partial curve], CCN(CC)c1ccc(Nc2nc(N3CCOCC3)c3ccccc3n2)cc1 31.6 µM [activator, single point], Cc1ccc(S(=O)(=O)NC(=O)c2ccccc2F)cc1 12.6 µM [activator, single point], Clc1ccc2c(c1)[C@H]1OCC[C@H]1[C@@H](c1ccco1)N2 7.94 µM [activator, full curve, poor fit], CCc1nc2ccc(C(=O)N3CCCC(C(N)=O)C3)cn2c1N(C=O)CC (centres undefined) 1 µM [activator, full curve], N#CCNC1CC(=O)N(c2ccc(F)cc2)C1=O (centres undefined) 7.94 µM [activator, single point], Cc1ccc2c(CNCc3ccccc3)cc(=O)oc2c1 14.1 µM [activator, single point], O=C(O)CCn1cc(/C=C\C(=O)c2ccc(Cl)cc2)c(-c2cccc(Br)c2)n1 10 µM [activator, partial curve, poor fit], O=c1[nH]nc(CNc2cccc(C(F)(F)F)c2)c2ccccc12 22.4 µM [activator, partial curve], CC(C)CCC[C@](C)(O)c1ccc(C(=O)O)cc1O 35.5 µM [activator, partial curve], Cc1cc(Nc2ccccc2C)nc(-n2nc(C)cc2C)n1 0.562 µM [activator, full curve, poor fit], Cc1c(C(=O)NCc2ccco2)oc2ccc(S(=O)(=O)N3CCC4(CC3)OCCO4)cc12 35.5 µM [activator, single point], O=C(N/N=C/c1ccc(N2CCOCC2)o1)c1cccc(C(F)(F)F)c1 28.2 µM [activator, partial curve], O=C(Nc1ccccc1C(=O)NC1CC1)c1ccc([N+](=O)[O-])o1 14.1 µM [activator, partial curve], COc1ccccc1/C=C/c1nc(S(=O)(=O)c2ccccc2)c(NCCN(C)C)o1 17.8 µM [activator, single point], O=C(OCc1ccc(COC(=O)c2ccccn2)cc1)c1ccccn1 17.8 µM [activator, single point], CC(C)(C)C(=O)O/N=C(\N)Cc1ccc(-c2csnn2)cc1 22.4 µM [activator, single point], O=c1oc2ccccc2n1Cc1ccccc1F 10 µM [activator, partial curve], Cc1ccc(C(=O)NC2=NCCS2)cc1Cl 11.2 µM [activator, partial curve], CC[C@@H](C)[C@H](CN[C@H](CNC)C(C)C)NC[C@@H](C)c1ccc(CC(C)C)cc1 1 µM [activator, partial curve], Cc1occc1C(=O)NNC(=O)CN1C(=O)NC2(CCCCC2)C1=O 11.2 µM [activator, partial curve], Cc1nc(CC(=O)Nc2cc(Cl)ccc2C)cs1 25.1 µM [activator, partial curve], Cc1sc2ncnc(NS(=O)(=O)c3ccc(Cl)cc3)c2c1C 35.5 µM [activator, single point], O=C(CN1/C(=C(/O)c2ccccc2)C(=O)c2ccccc2S1(=O)=O)c1ccccc1 12.6 µM [activator, single point], CC(Sc1ccccc1)C(=O)N1CCN(S(=O)(=O)c2ccccc2C(F)(F)F)CC1 (centres undefined) 8.91 µM [activator, partial curve], CCCC[C@H]1COCCS(=O)(=O)N1Cc1ccc(Br)cc1 35.5 µM [activator, single point], COc1ccc2nc(N(Cc3cccnc3)C(=O)C3COc4ccccc4O3)sc2c1 (centres undefined) 20 µM [activator, partial curve, poor fit], CC1CCc2c(sc3ncnc(SCC(=O)Nc4ccc(C(=O)O)cc4)c23)C1 (centres undefined) 11.2 µM [activator, partial curve, poor fit], C=CCNC1=C(Cl)C(=O)N(c2ccccc2Cl)C1=O 10 µM [activator, single point], Cc1cccc(N2CCN(C(=O)/C=C/c3ccco3)CC2)c1C 14.1 µM [activator, partial curve], O=C(CSc1nc(Cc2ccccc2)nc2ccccc12)Nc1nc2c(s1)CCCC2 31.6 µM [activator, single point], S=C1NC(c2ccccc2)=NCN1c1ccc(Cl)cc1 10 µM [activator, partial curve]

Potency, inactive:
CC(CC(=O)Nc1ccc2c(c1)c(=O)n(C)n2Cc1ccc(Cl)cc1)C(F)(F)F (centres undefined), CCOC(=O)c1ccc(NC(=O)CCS(=O)(=O)c2ccc(C)cc2)cc1, CCN(Cc1ccccc1)C(=O)Cn1c(=O)n(-c2ccc(F)c(Cl)c2)c(=O)c2sc3ccccc3c21, COc1cccc(CN2CCC(C(=O)NC(C)c3cccc4ccccc34)CC2)c1 (centres undefined), Cc1cc2c(c(=O)o1)C1(C(=O)N(CC(=O)O)c3ccccc31)C(C#N)=C(N)O2 (centres undefined), C/C(=N\N)c1c(-c2ccccc2)c2cc(Br)ccc2[nH]c1=O, O=C(O)CCC1OC(=O)C(O)=C1c1ccccc1 (centres undefined), CN1C[C@@H]2[C@@H]3C(=O)N(Cc4ccccc4)C(=O)[C@@H]3[C@](Cc3ccccc3)(C1=O)N2C(=O)c1ccc(Cl)c(Cl)c1, COc1cccc(C(=O)CC2(O)C(=O)Nc3ccc(Cl)cc32)c1 (centres undefined), CCOC(=O)c1ccc(C(=O)OCC)nc1, O=c1nccc(NCc2ccco2)[nH]1, CCOc1ccccc1CN1CCc2nc(N3CCN(c4ccccc4F)CC3)ncc2C1

Growth rescue (activation), inconclusive:
CN(C(=O)COC(=O)c1cccc(S(=O)(=O)N2CCCCCC2)c1)C1CCS(=O)(=O)C1 (centres undefined) 41.3% [activator]
